Measured values taken from PubChem BioAssay AID1508642 (National Center for Advancing Translational Sciences (NCATS), 2021).
Hit rate of the full screen: of about 43,000 compounds, about 200 (0.47%) were called active. Not shown: some 12% with an inconclusive outcome. Calls follow the shape of the dose curve; as a rule, active = well fitted cell-killing curve with a large enough effect; inconclusive = small, poorly fitted or top-dose-only effect, or effect the other way; inactive = flat fitted curve, though single readings scatter. The list shows a part of the results.

assay: Cell viability qHTS assay in S16 Pmp22-F2sN cells; details: S16 Pmp22-F2sN Schwann cells viability, CellTiter-Glo, 24 h; series mostly up to 57.5 µM; activity change, negative = cytotoxicity: at the top concentration; also: nearly all actives have a fitted effect of over 65% in size
Procedure, shortened: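 Viability was measured by CellTiter-Glo luminescence (15 min, room temperature). This followed 24 h at 37 °C of compound exposure (23 nL pin transfer) in S16 Pmp22-F2sN Schwann cells, 500-1,000 per well.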
% is scaled to controls: 0 for no effect and ±100 for the full control effect.

| SMILES | activity change, negative = cytotoxicity |
| --- | --- |
| O=C(CCn1c(=O)c2cccn2c2cccnc21)NCc1ccc(F)cc1 | inactive: 20.8% |
| CCN1C(=O)c2ccccc2S(=O)c2ccc(C(=O)N3CCN(c4cc(Cl)ccc4C)CC3)cc21 (configuration not stated) | inactive: -5.5% |
| Cc1ccccc1CN1CCC(CNC(=O)c2c(C)oc3ncnc(N4CCCCC4)c23)CC1 | inactive: 5.11% |
| CCOc1ccc(CCNC(=O)C2=C(C)C(=O)OC23CCCCC3)cc1 | inactive: -1.82% |
| CCC(Sc1nc(-c2ccccc2F)nc2c1Cc1c(CO)cnc(C)c1O2)C(=O)Nc1cc(C)ccc1C (configuration not stated) | inactive: -6.23% |
| Cc1ccccc1C1CC(=O)Nc2ccc3ccccc3c21 (configuration not stated) | inactive: -6.35% |
| Cc1ccc(C(=O)c2cn(CC(=O)Nc3ccc(C)cc3Cl)c3nc(C)ccc3c2=O)cc1 | inactive: 5.23% |
| Cc1cccc(NC(=O)N2CC(=O)Nc3sc4c(c3C2c2ccccc2)CCCC4)c1C (configuration not stated) | inactive: 4.56% |
| CCOC(=O)C1CCN(C(=O)c2ccc(-n3ccc4ccccc43)s2)CC1 | inactive: 7.19% |
| COc1ccc(Cn2ccn(Cc3cccc(OC)c3)c(=O)c2=O)cc1 | inactive: 2.71% |
| CCOc1ccccc1OCCCn1c(-c2ccc(Cl)cc2)nc2ccccc2c1=O | inactive: -1.7% |
| Cc1cn2c(=O)cc(COC(=O)c3ccc(NC(=O)COc4ccccc4F)cc3)nc2s1 | inactive: 1.27% |
| Cc1cc(C)cc(-n2c(-c3ccccc3)c(C)n3c4c(=O)n(C)c(=O)n(C)c4nc23)c1 | inactive: 7.2% |
| CCOc1cc(CNC(=O)c2ccc3c(c2)NC(=O)C2CCCCN32)cc(OCC)c1OCC (configuration not stated) | inactive: 6.77% |
| COc1ccc(NC(=O)CSC2=Nc3ccccc3C3=NC(CCC(=O)NC4CCCCC4)C(=O)N23)cc1 (configuration not stated) | inactive: 8.45% |
| CCCS(=O)(=O)N1CC(=O)N(c2ccc(Cl)cc2C)C(C)(C(=O)NC2CCCC2)C1 (configuration not stated) | inactive: 4% |
| COc1cc2nc(NC(=O)c3ccc(S(=O)(=O)N4CCOCC4)cc3)sc2cc1OC | inactive: 20% |
| O=C(CSCc1ccccc1Cl)N1CCN(c2ccc(Cl)cc2)CC1 | inactive: 1.26% |
| COc1c(C)cccc1C(=O)Nc1cccc2ccc(C)nc12 | inactive: 10.1% |
| CC(=O)c1cccc(NC(=O)C2CCN(S(=O)(=O)c3ccc4c(c3)oc(=O)n4C)CC2)c1 | inactive: 8.5% |
| COc1ccc2oc(=O)c(-c3cn4c(n3)sc3cc(OC)ccc34)cc2c1 | inactive: -0.154% |
| COc1ccc(OC)c(CNC(=O)Cn2nc(C)c3nn(-c4ccc(Cl)cc4)c(C)c3c2=O)c1 | inactive: -3.5% |
| COc1ccc(/C=C/C(=O)Nc2nc3n(n2)C(c2ccccc2)C=C(c2ccc(Cl)cc2)N3)cc1 (configuration not stated) | inactive: 4.26% |
| COc1ccc(CNC(=O)CCNS(=O)(=O)c2cccc3nsnc23)cc1 | inactive: 22.8% |

| SMILES | activity change, negative = cytotoxicity |
| --- | --- |
| Fc1ccc(-n2ncc3c(N4CCC(Cc5ccccc5)CC4)ncnc32)cc1 | inactive: -2.53% |
| CCOc1ccccc1CNC(=O)c1ccc(NC(=O)N2CCSc3ncccc32)cc1 | inactive: -8.57% |
| Clc1ccc(N2CCN(c3ncnc4c3cnn4-c3ccccc3)CC2)cc1Cl | inactive: 8.69% |
| COc1ccc(NC(=O)c2cc(S(=O)(=O)N3CCCCCC3)cn2C)cc1Cl | inactive: -3.32% |
| CCc1ccccc1NC(=O)Nc1nnc(N(C)Cc2ccccc2)s1 | inactive: -2.27% |
| O=C(Cn1cnc2c(oc3ccccc32)c1=O)Nc1ccc(OC(F)(F)F)cc1 | inactive: -4.57% |
| O=C(Nc1cccc(Cl)c1)N1CCC(CN2CCOCC2)CC1 | inactive: 3.44% |
| O=C(CN1C(=O)CC(c2ccco2)Sc2ccccc21)Nc1ccc(C(F)(F)F)cc1 (configuration not stated) | inactive: 24.7% |
| COc1ccc(N(Cc2cccs2)C(=O)c2ccc(C(C)(C)C)cc2)cc1 | inactive: -23.5% |
| COc1cc2[nH]c(=O)n(Cc3ccc(C(=O)N4CCN(c5cc(Cl)ccc5C)CC4)cc3)c(=O)c2cc1OC | inactive: -9.2% |
| O=C(NCC(c1ccc2c(c1)OCO2)N1CCOCC1)C(=O)Nc1ccc(F)cc1F (configuration not stated) | inactive: -0.861% |
| COC(=O)C1CCN(CC(=O)Nc2cc(C)c3c(=O)oc4ccccc4c3n2)CC1 | inactive: 4.89% |
| O=C(Nc1nnc(S(=O)(=O)N2CCCc3ccccc32)s1)c1cccc(F)c1 | inactive: -17.1% |
| COc1ccc(N(C(=O)c2cccc(C)c2)S(=O)(=O)c2ccc(C)cc2)cc1 | inactive: 1.76% |
| Cc1cc(C)c(NC(=O)Cn2ccn(-c3cccc(Cl)c3)c(=O)c2=O)c(C)c1 | inactive: -0.195% |
| CCOC(=O)c1ccc(NC(=O)c2c(C)nn(-c3ccc(F)cc3)c2-n2cccc2)cc1 | inactive: 24.4% |
| Cc1ccc2c(c1)N(C(=O)C1CCN(S(=O)(=O)c3c(C)noc3/C=C/c3ccccc3F)CC1)CCO2 | inactive: 6.61% |
| CCn1c(SCc2ccc(F)cc2Cl)nnc1-c1nonc1NC(C)=O | inactive: -11.8% |
| Cc1cccc(CCNC(=O)c2cnc3c(C)cccn3c2=O)c1 | inactive: 13.7% |
| CC(C)(C)c1ccc(S(=O)(=O)c2cn(CC(=O)Nc3ccccc3)c3ccccc3c2=O)cc1 | inactive: 3.9% |
| Cc1ccc(CNC(=O)c2ccc3c(c2)N(Cc2ccccc2)C(=O)c2ccccc2S3(=O)=O)cc1 | inactive: 8.05% |
| Cc1c(C(=O)Nc2ccc(F)c(Cl)c2)oc2ccc(S(=O)(=O)N(C)C3CCCCC3)cc12 | inactive: 3.88% |
| Cc1ccc(-n2ncc(C(=O)Nc3ccc4c(c3)OCO4)c2C2CCN(C(=O)OC(C)(C)C)CC2)c(C)c1 | inactive: -8.09% |
